Assay results published in PubChem BioAssay AID504333 (National Center for Advancing Translational Sciences (NCATS), 2011).
Among all 360,000 compounds or so, about 16,000 (4.4%) were called active. The shares of active, inactive and inconclusive entries below differ from those in the screen. The call rests on the fitted dose curve; in most records, active means well fitted inhibition curve with a large enough effect; inconclusive means small, poorly fitted or top-dose-only effect; inactive means no such curve, though single readings can be large or run the other way. Where the call is inconclusive, the potency comes from a doubtful curve fit.

Biological target: Bromodomain adjacent to zinc finger domain protein 2B (Homo sapiens) (UniProt Q9UIF8)
Experiment: qHTS Assay for Inhibitors of BAZ2B; further: nearly all actives have a fitted effect of over 60% in size
Conditions: AlphaScreen BAZ2B-H3K14Ac peptide displacement; activity change, negative = inhibition: at 114 µM (top of the series) unless noted
In short: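 AlphaScreen displacement of biotin-H3(5-23)K14Ac peptide (50 nM final) from BAZ2B (50 nM final) in PBS pH 7.4, 0.01% Tween-20; complex preformed 30 min RT, then compounds (top 110 uM) 30 min RT, beads 20 min dark.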
On the % scale 0 is the no-effect control and ±100 the full control effect; potency means the concentration at half of the fitted maximal effect; tags describe the fitted curve by direction and shape.

UniProt Q9UIF8, sequence (Q9UIF8 whole entry, looked up, the tested form may be a part): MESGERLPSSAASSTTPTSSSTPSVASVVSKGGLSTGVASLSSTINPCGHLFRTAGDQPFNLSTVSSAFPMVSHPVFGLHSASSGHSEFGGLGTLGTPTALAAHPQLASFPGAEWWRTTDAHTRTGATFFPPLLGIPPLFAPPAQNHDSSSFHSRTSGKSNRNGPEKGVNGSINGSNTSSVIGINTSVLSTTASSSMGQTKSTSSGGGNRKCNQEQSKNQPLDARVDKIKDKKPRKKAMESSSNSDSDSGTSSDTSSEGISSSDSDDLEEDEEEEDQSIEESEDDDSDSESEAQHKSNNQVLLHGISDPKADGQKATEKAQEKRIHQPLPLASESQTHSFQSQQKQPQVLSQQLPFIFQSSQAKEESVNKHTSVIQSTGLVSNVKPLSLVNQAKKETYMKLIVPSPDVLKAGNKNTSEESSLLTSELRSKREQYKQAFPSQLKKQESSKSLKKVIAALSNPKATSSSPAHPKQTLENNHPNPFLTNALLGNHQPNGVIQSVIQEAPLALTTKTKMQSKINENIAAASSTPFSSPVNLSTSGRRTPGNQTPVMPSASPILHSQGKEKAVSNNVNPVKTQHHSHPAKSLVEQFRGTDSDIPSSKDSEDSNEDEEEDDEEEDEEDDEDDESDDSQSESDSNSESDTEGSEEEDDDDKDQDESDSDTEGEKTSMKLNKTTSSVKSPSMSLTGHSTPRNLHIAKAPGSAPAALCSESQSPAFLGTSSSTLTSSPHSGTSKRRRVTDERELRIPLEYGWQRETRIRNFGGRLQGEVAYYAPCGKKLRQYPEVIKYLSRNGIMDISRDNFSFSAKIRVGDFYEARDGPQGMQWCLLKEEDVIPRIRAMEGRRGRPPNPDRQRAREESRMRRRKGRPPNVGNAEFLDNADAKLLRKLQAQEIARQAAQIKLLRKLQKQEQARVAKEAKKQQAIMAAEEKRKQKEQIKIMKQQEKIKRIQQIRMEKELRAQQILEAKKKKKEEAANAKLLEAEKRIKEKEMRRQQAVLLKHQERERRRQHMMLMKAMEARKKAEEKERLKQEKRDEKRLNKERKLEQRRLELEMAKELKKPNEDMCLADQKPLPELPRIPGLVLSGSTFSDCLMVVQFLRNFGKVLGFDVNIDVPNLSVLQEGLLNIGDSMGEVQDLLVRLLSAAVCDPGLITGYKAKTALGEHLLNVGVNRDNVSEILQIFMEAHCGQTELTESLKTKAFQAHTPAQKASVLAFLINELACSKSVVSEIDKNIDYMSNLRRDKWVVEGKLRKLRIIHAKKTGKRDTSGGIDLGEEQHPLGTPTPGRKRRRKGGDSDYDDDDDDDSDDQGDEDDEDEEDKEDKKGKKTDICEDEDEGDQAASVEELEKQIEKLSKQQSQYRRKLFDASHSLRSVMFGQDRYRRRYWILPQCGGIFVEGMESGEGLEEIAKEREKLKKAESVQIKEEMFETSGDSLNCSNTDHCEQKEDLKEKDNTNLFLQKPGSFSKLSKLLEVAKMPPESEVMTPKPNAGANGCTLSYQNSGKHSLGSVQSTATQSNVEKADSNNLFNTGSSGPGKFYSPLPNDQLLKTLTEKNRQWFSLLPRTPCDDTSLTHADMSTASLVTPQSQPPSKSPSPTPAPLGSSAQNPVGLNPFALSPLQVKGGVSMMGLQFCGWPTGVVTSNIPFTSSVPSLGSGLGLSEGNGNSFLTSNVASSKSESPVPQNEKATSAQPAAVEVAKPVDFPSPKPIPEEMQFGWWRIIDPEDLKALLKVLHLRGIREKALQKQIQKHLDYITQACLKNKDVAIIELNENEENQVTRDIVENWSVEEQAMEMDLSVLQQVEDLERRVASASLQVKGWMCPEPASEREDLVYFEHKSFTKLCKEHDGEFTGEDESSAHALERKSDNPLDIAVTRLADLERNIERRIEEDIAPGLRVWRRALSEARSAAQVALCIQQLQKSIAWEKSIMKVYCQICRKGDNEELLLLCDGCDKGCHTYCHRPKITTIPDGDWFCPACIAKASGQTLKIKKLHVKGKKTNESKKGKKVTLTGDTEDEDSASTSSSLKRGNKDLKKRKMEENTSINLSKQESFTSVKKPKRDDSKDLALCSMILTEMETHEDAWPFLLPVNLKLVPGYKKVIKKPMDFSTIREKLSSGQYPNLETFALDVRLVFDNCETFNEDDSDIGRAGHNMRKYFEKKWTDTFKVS

Row | SMILES | Potency | activity change, negative = inhibition
1 | CCC(CC)C(=O)Nc1c(C(=O)N2CCN(c3ccccc3F)CC2)oc2ccccc12 | inconclusive: 56.2 µM [inhibitor, partial curve] | 
2 | CCCCCCc1cc2cc(/C(N)=N/NC(=O)c3ccncc3)c(=O)oc2cc1O | inconclusive: 89.1 µM [inhibitor, single point] | 
3 | CCOc1ccc(C2=C(C=C(C#N)C#N)C(c3ccccc3)c3ccccc3O2)cc1 (configuration not stated) | inconclusive: 35.5 µM [inhibitor, partial curve] | 
4 | C=C(C)CSc1nnc([C@@H]2CCCN2)o1 | active: 50.1 µM | 
5 | COc1cc2c(cc1OC)C1=NC(=O)CN1C(SCc1ccc(C)cc1)=N2 | active: 79.4 µM | 
6 | COc1ccc(N2CCN(CCCNC(=O)Nc3ccccc3Cl)CC2)cc1 | active: 35.5 µM | 
7 | O=C(c1cccc(S(=O)(=O)N2CCCCC2)c1)N1CCN(c2ccccc2)CC1 |  | inactive: -23.7%
8 | Cc1ccc(-c2nc3ccc([N+](=O)[O-])cc3[nH]2)cc1 |  | inactive: -34.6%
9 | Cc1csc(NS(=O)(=O)c2ccc(Cl)cc2)n1 | inconclusive: 79.4 µM [inhibitor, partial curve] | 
10 | COc1ccc(CN2CCN(CCCc3ccccc3)C(CCO)C2)cc1OC (configuration not stated) | inconclusive: 89.1 µM [inhibitor, single point] | 
11 | Cc1ccc(CN=c2c([N+](=O)[O-])nn(-c3cccc(C)c3)n2O)cc1 | inconclusive: 70.8 µM [inhibitor, single point] | 
12 | CCC1(CC)Cc2ccccc2-c2nc(CCl)[nH]c(=O)c21 | inconclusive: 100 µM [inhibitor, single point] | 
13 | Cc1cc(C(=O)CSc2n[nH]c(N)n2)c(C)n1-c1ccc2c(c1)OCO2 | inconclusive: 79.4 µM [inhibitor, single point] | 
14 | O=C(C1CCN(Cc2ccc(Cl)cc2)CC1)N1CCN(C(c2ccccc2)c2ccccc2)CC1 | active: 79.4 µM | 
15 | S=C(c1ccc(-c2ccc(Cl)c(Cl)c2)o1)N1CCOCC1 | active: 11.2 µM | 
16 | Cc1ccc(NC(=O)c2cccc(NC(=O)N3CCSc4ncccc43)c2)cc1Cl |  | inactive: -15.9%
17 | COc1cc(/C=C2\SC(=Nc3ccc(N4CCOCC4)cc3)N(C)C2=O)ccc1OC(C)C(=O)O (configuration not stated) | inconclusive: 89.1 µM [inhibitor, single point] | 
18 | Cc1c(C(=O)N(Cc2cccc(Br)c2)C2CCS(=O)(=O)C2)oc2ccc(F)cc12 (configuration not stated) |  | inactive: -35.9%
19 | Cc1ccc(C)c(NC(=S)Nc2ncccc2C)c1 | inconclusive: 35.5 µM [inhibitor, full curve] | 
20 | NNC(=O)c1ccncc1 | inconclusive: 89.1 µM [inhibitor, single point] | 
21 | COc1ccc(NC(=O)CC2C(=O)N(c3ccc(OC)cc3)C(=O)N2C(C)C)cc1 (configuration not stated) | inconclusive: 89.1 µM [inhibitor, single point] | 
22 | N#Cc1ccc(C(=O)Nc2ccc(Cl)c(-c3nc4cc(Cl)ccc4o3)c2)c(F)c1 | inconclusive: 89.1 µM [inhibitor, single point] | 
23 | O=C(Cc1ccccc1)Nc1ccc2oc(-c3cccnc3)nc2c1 | inconclusive: 89.1 µM [inhibitor, single point] | 

Row | SMILES | Potency | activity change, negative = inhibition
24 | COc1ccc(OC)c(NC(=O)CSC2=Nc3ccccc3C3=NC(CC(=O)NCc4ccco4)C(=O)N23)c1 (configuration not stated) | inconclusive: 79.4 µM [inhibitor, single point] | 
25 | C[C@]12CCC(=O)C[C@@H]1CC[C@@H]1[C@@H]2CC[C@]2(C)[C@@H](C(=O)COC(=O)CCC(=O)O)CC[C@@H]12 | inactive | 
26 | CC(C)NC(=S)Nc1ccc(Oc2ccccc2)cc1 | inconclusive: 56.2 µM [inhibitor, partial curve] | 
27 | N#CCSc1ccccc1NC(=O)COC(=O)CCNC(=O)c1ccc([N+](=O)[O-])cc1 |  | inactive: 3.69%
28 | O=S(=O)(Nc1ccc(N2CCCCC2)cc1)c1ccc(F)cc1F | inconclusive: 50.1 µM [inhibitor, partial curve] | 
29 | CC(=O)Nc1ccc(NC(=O)c2cc([N+](=O)[O-])cc([N+](=O)[O-])c2)cc1 | inconclusive: 89.1 µM [inhibitor, single point] | 
30 | COC(=O)c1ccccc1NC1=C/C(=N\S(=O)(=O)c2cccs2)c2ccccc2C1=O | active: 1.41 µM | 
31 | CCOC(=O)N1CCC(NCCNC(=O)c2ccc(Cl)cc2)CC1 | inconclusive: 89.1 µM [inhibitor, single point] | 
32 | O=[N+]([O-])c1ccccc1/C=C/C=N/n1c(-c2ccccc2F)n[nH]c1=S | inconclusive: 39.8 µM [inhibitor, partial curve] | 
33 | COc1ccc2[nH]c3c(c2c1)CCN1C(=O)N([C@@H](C)C(=O)NC2CCCCC2C)C(=O)[C@]31C (some centres not stated) | inconclusive: 39.8 µM [inhibitor, partial curve] | 
34 | COc1ccc(C2C3=C(CCCC3=O)NC3=C2C(=O)c2ccccc23)cc1 (configuration not stated) | active: 35.5 µM | 
35 | Cc1ccc(-n2ncc3c2ncn2nc(-c4ccco4)nc32)c(C)c1 | inconclusive: 89.1 µM [inhibitor, single point] | 
36 | NC(=O)CC(NC(=O)c1ccc(Br)cc1)c1ccc(N2CCN(c3ccccc3)CC2)c([N+](=O)[O-])c1 (configuration not stated) | inconclusive: 79.4 µM [inhibitor, single point] | 
37 | Cc1ccccc1NCC(=O)N/N=C\c1ccc2c(c1)OCO2 | inconclusive: 79.4 µM [inhibitor, single point] | 
38 | COc1ccc(CC(=O)O/N=C(\N)Cc2cccc3ccccc23)cc1OC |  | inactive: 10.4%
39 | CCOc1ccc(-c2cn(-c3ccc(OC)cc3)c(SCC(=O)Nc3ccccc3Cl)n2)cc1 | inconclusive: 25.1 µM [inhibitor, full curve] | 
40 | COc1ccc(F)cc1S(=O)(=O)NCCc1csc(-c2ccc(Cl)cc2)n1 |  | inactive: 2.29%
41 | Cc1cccc(C(=O)N2CCN(c3ccc([N+](=O)[O-])c(NCc4ccco4)c3)CC2)c1 | inconclusive: 11.2 µM [inhibitor, partial curve] | 
42 | COC(=O)c1sc(SC)nc1N | inconclusive: 3.16 µM [inhibitor, full curve, poor fit] | 
43 | C[C@]1(C(=O)NCCc2c[nH]c3ccccc23)C=C[C@@H](Cc2ccccc2)N1C(=O)c1ccccc1 | active: 79.4 µM | 
44 | Cc1ccc(NC(=O)CN2CCN(Cc3ccccc3)CC2)c(Br)c1 |  | inactive: 7.08% [at 0.457 µM]
45 | COc1ccc(-c2csc3ncnc(N4CCN(c5ccc(OC)cc5)CC4)c23)cc1 | active: 10 µM | 
46 | CCOC(=O)C1=C(N)N(c2cc(S(=O)(=O)N3CCOCC3)ccc2Cl)C(=O)C1 | inconclusive: 70.8 µM [inhibitor, single point] | 

Row | SMILES | Potency | activity change, negative = inhibition
47 | CC(=O)Nc1ccc(NC(=O)C(C)OC(=O)CCCc2c[nH]c3ccccc23)cc1 (configuration not stated) | inconclusive: 70.8 µM [inhibitor, single point] | 
48 | O=c1cc(CO)oc(CN2CCN(c3cccc(C(F)(F)F)c3)CC2)c1O | inconclusive: 100 µM [inhibitor, single point] | 
49 | O=C(/C=N/O)Nc1ccccc1C(=O)O | inconclusive: 89.1 µM [inhibitor, single point] | 
50 | CC1=C(C)CC(C(=O)Nc2nccs2)C(C(=O)O)C1 (configuration not stated) |  | inactive: 9.7%
51 | O=C(Nc1cccc(-c2nc3ncccc3o2)c1)c1ccc(-c2cccc(Cl)c2Cl)o1 | inconclusive: 70.8 µM [inhibitor, single point] | 
52 | COc1ccc(N2CCN(C(=O)C3CCCN(S(=O)(=O)c4ccc(F)cc4)C3)CC2)cc1 (configuration not stated) | active: 39.8 µM | 
53 | CC(C)C[C@@H](NC(=O)C1CCC(CNC(=O)[C@@H]2CCCN2C(=O)OC(C)(C)C)CC1)C(=O)O (some centres not stated) |  | inactive: 9.42%
54 | Brc1cccc(OCCCNC2CCCC2)c1 | inconclusive: 89.1 µM [inhibitor, single point] | 
55 | CCc1c(O)nc(SCC(=O)Nc2nc3ccccc3s2)n(C2CCCCC2)c1=O | inconclusive: 56.2 µM [inhibitor, partial curve, poor fit] | 
56 | Nc1nc(N)c(S(=O)(=O)c2ccccc2)c(Nc2ccc(Br)cc2)n1 | inconclusive: 79.4 µM [inhibitor, partial curve] | 
57 | c1cc2c(cc1Nc1nc(-c3ccc4c(c3)OCO4)cs1)OCCO2 | inconclusive: 44.7 µM [inhibitor, partial curve] | 
58 | Cc1ccc2[nH]cc(CCNC(=O)/C=C/c3ccco3)c2c1 | inconclusive: 50.1 µM [inhibitor, partial curve] | 
59 | COc1ccc(C(=O)NCC(c2cccnc2)N2CCN(c3ccc(F)cc3)CC2)cc1 (configuration not stated) | inconclusive: 89.1 µM [inhibitor, single point] | 
60 | CCn1c(C)cc(/C=C2\NC(=O)N(CC(=O)Nc3ccc(F)cc3)C2=O)c1C | inconclusive: 89.1 µM [inhibitor, single point] | 
61 | CCOc1ccc(C(C)=O)cc1N1C(=O)C2C3C=CC(C3=C(C)C)C2C1=O (configuration not stated) |  | inactive: -30.1%
62 | O=C(NCCC1=CCCCC1)c1c(O)nc2sccn2c1=O | inconclusive: 89.1 µM [inhibitor, single point] | 
63 | CSc1nc2ccc(NS(=O)(=O)c3ccc([N+](=O)[O-])cc3)cc2s1 | inconclusive: 31.6 µM [inhibitor, partial curve] | 
64 | O=C(NC(NNc1ccc([N+](=O)[O-])cc1)(C(F)(F)F)C(F)(F)F)c1ccccc1Cl | inconclusive: 79.4 µM [inhibitor, single point] | 
65 | COc1ccc(OC)c(/C=N/NC(=O)C(=O)N2CCCC2)c1 |  | inactive: -1.63%
66 | NC(=NCCc1c[nH]c2ccccc12)NC(=O)c1ccc(Cl)cc1 | active: 79.4 µM | 
67 | COc1ccc(/C=C2\SC(=S)N(CCC(=O)Nc3ccccc3C(=O)O)C2=O)cc1 | inconclusive: 39.8 µM [inhibitor, full curve] | 
